Data on 37 molecules can be found in PubChem BioAssay AID1745853 (National Center for Advancing Translational Sciences (NCATS), 2022).

The other results are listed elsewhere or left out. The main result of the screen is listed elsewhere. These columns were measured beside it and carry no call.

What all share (experiment): Primary Screen for Target Class Profiling of Small Molecule Inhibitors of Methyltransferases
The target of assay [1] is Glycine N-methyltransferase (Homo sapiens) (UniProt Q14749). To be noted: purified enzyme, MTase-Glo SAH luminescence; measured here: GNMT inhibition; at 40 µM; stronger effect = lower value. The gist of the method: (§1)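 Each enzyme was reacted with SAM and its substrate, with compounds tested once at 40 uM; SAH formed was read by MTase-Glo luminescence.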
In assay [2] the target is Guanidinoacetate N-methyltransferase (Homo sapiens) (UniProt Q14353). To be noted: purified enzyme, MTase-Glo SAH luminescence; measured here: GAMT inhibition; at 40 µM; stronger effect = lower value. The gist of the method:
as §1

Assay [3] has as its target Histamine N-methyltransferase (Homo sapiens) (UniProt P50135). The following applies: purified enzyme, MTase-Glo SAH luminescence; measured here: HNMT inhibition; at 40 µM; stronger effect = lower value. The method in brief:
as §1

Assay [4] deals with Nicotinamide N-methyltransferase (Homo sapiens) (UniProt P40261). The following applies: purified enzyme, MTase-Glo SAH luminescence; measured here: NNMT inhibition; at 40 µM; stronger effect = lower value. The gist of the method:
as §1

Assay [5] concerns the target Phenylethanolamine N-methyltransferase (Homo sapiens) (UniProt P11086). The following applies: purified enzyme, MTase-Glo SAH luminescence; measured here: PNMT inhibition; at 40 µM; stronger effect = lower value. The gist of the method:
as §1
% is scaled to controls: 0 for no effect and ±100 for the full control effect.

For `CC(C)CCNC(=O)C1c2c(n(C)c3ccccc23)SCC(=O)N1c1ccc(C(C)C)cc1` (stereo not given), the activity change, negative = inhibition in assay [1] was 4.37%; in assay [2] it was 0%; in assay [3] it was 0.34%; in assay [4], -7.66%; in assay [5] it was 1.59%.

With `CC(C)Cn1c(=O)c2ccccc2n2c(CCC(=O)NCCc3c[nH]c4ccccc34)nnc12`, the activity change, negative = inhibition in assay [1] was -9.39%; in assay [2] it was 0%; in assay [3], -12%; in assay [4], -12.9%; in assay [5], 1.28%.

For the molecule `CN1C(=O)c2cc(NC(=O)c3cccc(Br)c3)ccc2N2CCN=C12`, the activity change, negative = inhibition is -3.81% in assay [1]; -0.809% in assay [2]; 3.88% in assay [3]; 1.39% in assay [4]; -1.2% in assay [5].

As to `CN(Cc1ccccc1C(F)(F)F)S(=O)(=O)c1cccc(C(F)(F)F)c1`, the activity change, negative = inhibition in assay [1] is -3.82%; in assay [2], -3.84%; in assay [3], -0.766%; in assay [4] it was -11.5%; in assay [5], -22.3%.

On to `CC1CCC(NC(=O)c2ccc3c(=O)nc4c(-c5ccc(Cl)cc5)n[nH]n4c3c2)CC1` (stereo not given), for which the activity change, negative = inhibition was -4.52% in assay [1]; 0.516% in assay [2]; 6.03% in assay [3]; 8.71% in assay [4]; 3.81% in assay [5].

With `O=C([C@@H]1C[C@H](F)CN1C(=O)NCc1ccc(OC(F)(F)F)cc1)N1CCCCC1`, the activity change, negative = inhibition was -1.68% in assay [1]; 0.536% in assay [2]; -0.097% in assay [3]; -3.97% in assay [4]; -0.415% in assay [5].

As to `CC(C)Cn1c(=O)c2ccc(C(=O)NC(C)C)cc2n2c(=O)n(CC(=O)Nc3ccc(Cl)cc3)nc12`, the activity change, negative = inhibition in assay [1] is -0.329%; in assay [2], 2.61%; in assay [3] it was 4.63%; in assay [4] it was 2.69%; in assay [5], 2.99%.

Turning to `CN(C)S(=O)(=O)c1ccc(NC(=S)N2CCC(C(O)(c3ccccc3)c3ccccc3)CC2)cc1`, the activity change, negative = inhibition is 3.92% in assay [1]; -9.53% in assay [2]; 12.5% in assay [3]; -24.7% in assay [4]; -4.71% in assay [5].

With `CCc1cc2c(cc3n2CC(C)(C(=O)NC2CCC(C)CC2)N(CCCN2CCCCC2)C3=O)s1` (stereo not given), the activity change, negative = inhibition in assay [1] is 2.48%; in assay [2] it was 3.32%; in assay [3], -0.383%; in assay [4], -1.79%; in assay [5], -1.69%.

On to `CCN(CC)C(=O)C[C@@H]1c2nc(NC(=O)N3CCOCC3)sc2C[C@@H]2[C@](C)(CO)[C@H](O)CC[C@]21C`, for which the activity change, negative = inhibition was -2.42% in assay [1]; -1.69% in assay [2]; 0.104% in assay [3]; -3.17% in assay [4]; -2.09% in assay [5].

As for `CC1(C)C(=O)N2c3ccccc3[C@]3(CC(n4cnc5ccccc5c4=O)C(=O)O3)[C@H]2N1O` (stereo not given in full), the activity change, negative = inhibition was 2.68% in assay [1]; 1.73% in assay [2]; 5.2% in assay [3]; -14.4% in assay [4]; 4.04% in assay [5].

As to `CCCn1c(=O)c2cc(Cl)ccc2n2c(SCc3ccccc3C)nnc12`, the activity change, negative = inhibition was -29.4% in assay [1]; 0% in assay [2]; 7.75% in assay [3]; -10.1% in assay [4]; 1.67% in assay [5].

`Cc1cccc(-c2nc(Cn3c(-c4ccc(F)cc4)nc(C)c(CCO)c3=O)c(C)o2)c1`: the activity change, negative = inhibition in assay [1] was 0.102%; in assay [2], 1.06%; in assay [3] it was 1.2%; in assay [4], -1.65%; in assay [5] it was 5.18%.

Turning to `COC1CCOC2(CCN(S(=O)(=O)c3c(C)noc3C)CC2)C1` (stereo not given), the activity change, negative = inhibition in assay [1] is 0.175%; in assay [2], -1.58%; in assay [3] it was -0.676%; in assay [4], -2.37%; in assay [5] it was -0.91%.

For the molecule `COCC(=O)N1CCN(C(=O)CSCC(=O)O)C[C@H]1C(=O)N[C@H]1CCCNC1=O`, the activity change, negative = inhibition in assay [1] is -2.28%; in assay [2] it was -2.54%; in assay [3], -1.37%; in assay [4] it was -9.62%; in assay [5], 8.45%.

For `Cc1ccc(C(=O)N2CC(Oc3ccc(F)c(C)c3)C2)cc1`, the activity change, negative = inhibition in assay [1] was -8.24%; in assay [2] it was 1.09%; in assay [3] it was -1.7%; in assay [4], -20.6%; in assay [5] it was -4.86%.

On to `CCCN1C(=O)c2cc3ccccc3n2CC1(C)C(=O)NC1CCCCCC1` (stereo not given), for which the activity change, negative = inhibition in assay [1] is 6.41%; in assay [2], 6.18%; in assay [3], 6.19%; in assay [4], -0.654%; in assay [5], -1.59%.

As for `O=C(O)C[C@@H]1CCN(C(=O)c2ccc(C(F)(F)F)cc2)C[C@@H]1CCN1CCN(c2ccccn2)CC1`, the activity change, negative = inhibition in assay [1] was 0.484%; in assay [2], -0.168%; in assay [3], 0.867%; in assay [4] it was 1.67%; in assay [5] it was -2.22%.

In the case of `COCCN1C(=O)CCC2(C(=O)N3CCN(c4ccccn4)CC3)CCCC=C12` (stereo not given), the activity change, negative = inhibition in assay [1] is 0.744%; in assay [2], 2.02%; in assay [3], 1.11%; in assay [4], -2.87%; in assay [5], -0.433%.

For `CCOc1ccc(-c2cccc3c2CCNC3)cc1C(N)=O`, the activity change, negative = inhibition in assay [1] was -5.59%; in assay [2] it was -8.75%; in assay [3], -10.8%; in assay [4], -11.8%; in assay [5], -12.9%.

`CC[S+](=O)([O-])N1C[C@@H](CO)[C@@H]2Oc3c(F)cccc3[C@@H]21`: the activity change, negative = inhibition in assay [1] is -7.48%; in assay [2] it was -4.81%; in assay [3], -2.38%; in assay [4], -10.9%; in assay [5] it was -10.1%.

With `Cc1ccc(Cn2c(=O)c3ccccc3n3c(CCC(=O)NCCC(C)C)nnc23)cc1`, the activity change, negative = inhibition in assay [1] is -6.45%; in assay [2] it was 0.588%; in assay [3] it was 4.37%; in assay [4], 12.7%; in assay [5], -1.33%.

As to `CC1CCN(C(=O)C[C@@H]2c3nc(NC(=O)CC(C)(C)C)sc3C[C@@H]3[C@](C)(CO)[C@H](O)CC[C@]32C)CC1`, the activity change, negative = inhibition in assay [1] is -3.06%; in assay [2], 2.35%; in assay [3], -1.57%; in assay [4], -2.58%; in assay [5], 8.69%.

Consider `CC(=O)OC[C@]12[C@@H](OC(=O)c3ccoc3)C[C@@H]3[C@@H](OC(C)=O)[C@]1(OC3(C)C)[C@@](C)(O)C[C@H](OC(=O)c1ccoc1)[C@@H]2OC(=O)c1ccoc1`, for which the activity change, negative = inhibition in assay [1] was 0.315%; in assay [2], -0.484%; in assay [3], 7.22%; in assay [4], -12.7%; in assay [5] it was -5.78%.

In the case of `CCCSCCCN1C(=O)c2nc3ccccc3n2CC1(C)C(=O)NC1CCCCC1C` (stereo not given), the activity change, negative = inhibition in assay [1] turned out to be 1.65%; in assay [2], 4.88%; in assay [3], 6.07%; in assay [4], 0.866%; in assay [5], 0.807%.

With `C[C@@H]1CCN(C(=O)N2CCCC2)C[C@@H]1N(C)c1ncnc2[nH]ccc12`, the activity change, negative = inhibition in assay [1] is -5.04%; in assay [2] it was -6.5%; in assay [3], -0.451%; in assay [4] it was -24%; in assay [5], -12.9%.

On to `Cc1nc(C2(C)CCN(C(=O)CCCC(=O)n3nc(C)c4ccccc43)CC2)no1`, for which the activity change, negative = inhibition in assay [1] is -3.22%; in assay [2] it was -1.38%; in assay [3], 1.29%; in assay [4] it was -15.8%; in assay [5], -2.44%.

For the molecule `CCOc1ccc(CCNC(=O)CCc2nnc3n(CCCOC(C)C)c(=O)c4ccccc4n23)cc1`, the activity change, negative = inhibition was -3.79% in assay [1]; 32.1% in assay [2]; 9.49% in assay [3]; 11.3% in assay [4]; 2.52% in assay [5].

In the case of `COCCNC(=O)c1cc(-c2ccccc2OC)c2cccn2n1`, the activity change, negative = inhibition in assay [1] is -12.7%; in assay [2], -7%; in assay [3] it was -6.26%; in assay [4] it was -20.1%; in assay [5] it was -8.96%.

Turning to `COc1ccc(NC(=O)CCc2nnc3n(CCc4ccccc4)c(=O)c4ccccc4n23)cc1OC`, the activity change, negative = inhibition in assay [1] is 4.63%; in assay [2], 3.38%; in assay [3], 6.61%; in assay [4], 7.05%; in assay [5], 1.26%.

As to `Cn1nccc1-c1ccccc1Oc1ccc(S(=O)(=O)Nc2nccs2)cc1C#N`, the activity change, negative = inhibition in assay [1] is -4.59%; in assay [2] it was 3%; in assay [3] it was 12.1%; in assay [4] it was -25%; in assay [5] it was 1.79%.

`CN1CCN(CCNC(=O)CCn2ccc3cc(S(=O)(=O)N4CCCCC4)ccc32)CC1`: the activity change, negative = inhibition in assay [1] amounted to 7.07%; in assay [2], 2.8%; in assay [3], 2.99%; in assay [4] it was 13.4%; in assay [5] it was 6.14%.

On to `Cc1cccc(NC(=O)Cn2nc3n(CCC(C)C)c(=O)c4ccc(C(=O)NCC(C)C)cc4n3c2=O)c1`, for which the activity change, negative = inhibition in assay [1] is -1.64%; in assay [2], -1.97%; in assay [3] it was 1.64%; in assay [4], -5.62%; in assay [5] it was -4.43%.

In the case of `O=C(CCn1ccc2cc(S(=O)(=O)N3CCCCC3)ccc21)N1CCN(c2ccc(F)cc2)CC1`, the activity change, negative = inhibition in assay [1] was -3.32%; in assay [2], -1.93%; in assay [3], -4.42%; in assay [4] it was -10%; in assay [5], -5.95%.

With `O=C(CSc1nnc2n(Cc3ccccc3)c(=O)c3ccccc3n12)Nc1ccc(F)cc1`, the activity change, negative = inhibition in assay [1] is -10.3%; in assay [2], 0%; in assay [3], 0.494%; in assay [4], -18.3%; in assay [5] it was -5.54%.

Consider `O=C(C[C@@H]1CCNC[C@@H]1Cc1cc(COc2ccccc2)on1)Nc1ccccc1`, for which the activity change, negative = inhibition in assay [1] was -6.61%; in assay [2] it was -0.198%; in assay [3], -6.83%; in assay [4], -9.57%; in assay [5], -13.4%.

With `COC(=O)c1cc2n(n1)CC(C)(C(=O)NC1CCC(C)CC1)N(Cc1ccc(F)cc1)C2=O` (stereo not given), the activity change, negative = inhibition amounted to 3.45% in assay [1]; 0% in assay [2]; 6.93% in assay [3]; 3.85% in assay [4]; 4.03% in assay [5].
